{"source": "the BET-seq Pho4 binding data (Le et al. 2018)", "note": "The other results are listed elsewhere or left out. The energies were worked out here from pooled read counts, against the library average; single values are noisy."}
{"target": "T1, Pho4 (S. cerevisiae) (UniProt P07270)", "T1 sequence": "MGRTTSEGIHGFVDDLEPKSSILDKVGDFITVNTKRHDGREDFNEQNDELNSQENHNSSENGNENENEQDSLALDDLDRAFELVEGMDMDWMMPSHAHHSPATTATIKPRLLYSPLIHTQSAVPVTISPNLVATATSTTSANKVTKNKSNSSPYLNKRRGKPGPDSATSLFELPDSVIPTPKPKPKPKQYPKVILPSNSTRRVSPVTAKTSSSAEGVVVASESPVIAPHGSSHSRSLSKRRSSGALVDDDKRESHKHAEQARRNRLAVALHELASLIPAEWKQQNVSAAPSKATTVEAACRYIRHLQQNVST", "assay": "relative binding free energy (BET-seq); higher = weaker binding", "settings": "reference: library average", "units": {"relative binding free energy": "kcal/mol"}}
{"sequence": "AATATCACGTGTGGTT", "relative binding free energy": 0.24}
{"sequence": "CTGTGCACGTGTTTAG", "relative binding free energy": 0.08}
{"sequence": "ATACGCACGTGGTGGA", "relative binding free energy": -0.23}
{"sequence": "GTTGTCACGTGAAAGT", "relative binding free energy": 0.29}
{"sequence": "CTGCTCACGTGTTGTT", "relative binding free energy": 0.22}
{"sequence": "GAGGACACGTGGGGTT", "relative binding free energy": 0.03}
{"sequence": "TCAGGCACGTGAGTTT", "relative binding free energy": 0.08}
{"sequence": "TTTTTCACGTGGTTTT", "relative binding free energy": 0.33}
{"sequence": "AGGGACACGTGCGCGG", "relative binding free energy": -0.12}
{"sequence": "TTTTTCACGTGGGATT", "relative binding free energy": 0.22}
{"sequence": "CGGGTCACGTGGTTCA", "relative binding free energy": 0.06}
{"sequence": "GGTAACACGTGTATTA", "relative binding free energy": 0.08}
{"sequence": "ACGGTCACGTGGACGG", "relative binding free energy": 0.16}
{"sequence": "TGGAGCACGTGTTTTG", "relative binding free energy": 0}
{"sequence": "ATGTACACGTGTGCGT", "relative binding free energy": 0.06}
{"sequence": "GCGTTCACGTGGGGTT", "relative binding free energy": 0.1}
{"sequence": "AGTGGCACGTGAATTT", "relative binding free energy": 0.15}
{"sequence": "TCTAGCACGTGAGTTT", "relative binding free energy": 0.13}
{"sequence": "GAGTGCACGTGTGTGT", "relative binding free energy": -0.01}
{"sequence": "AGGGCCACGTGGGTTA", "relative binding free energy": -0.17}
{"sequence": "GAGATCACGTGATGTG", "relative binding free energy": 0.39}
{"sequence": "ATGCACACGTGTATTG", "relative binding free energy": -0.01}
{"sequence": "GCAGGCACGTGGGACG", "relative binding free energy": -0.19}
{"sequence": "GTAGGCACGTGTGTAG", "relative binding free energy": -0.05}
{"sequence": "GTAGACACGTGCGTTG", "relative binding free energy": -0.13}
{"sequence": "CCTGTCACGTGTTTGT", "relative binding free energy": -0.1}
{"sequence": "TTTGGCACGTGGGCGT", "relative binding free energy": -0.22}
{"sequence": "TTGTACACGTGGGGCG", "relative binding free energy": -0.05}
{"sequence": "GTGACCACGTGGAATT", "relative binding free energy": 0.29}
{"sequence": "GATTCCACGTGTTTGA", "relative binding free energy": 0.32}
{"sequence": "ATAGACACGTGTCGTT", "relative binding free energy": 0}
{"sequence": "TGCGACACGTGAAGTT", "relative binding free energy": 0.2}
{"sequence": "TTCGTCACGTGAAGTG", "relative binding free energy": 0.27}
{"sequence": "AGTGCCACGTGAATGG", "relative binding free energy": 0.13}
{"sequence": "AGGGTCACGTGTTGGC", "relative binding free energy": 0.08}
{"sequence": "CTTGGCACGTGTATGA", "relative binding free energy": -0.16}
{"sequence": "GTTTTCACGTGGTGAT", "relative binding free energy": 0.35}
{"sequence": "AGTTGCACGTGGTGTC", "relative binding free energy": -0.03}
{"sequence": "GATTGCACGTGAATTA", "relative binding free energy": 0.33}
{"sequence": "ATAGCCACGTGGGGTT", "relative binding free energy": -0.26}
{"sequence": "CTTGACACGTGTTTTG", "relative binding free energy": 0}
{"sequence": "ATGTGCACGTGGGAGT", "relative binding free energy": -0.07}
{"sequence": "GTGGGCACGTGAGTCG", "relative binding free energy": 0.16}
{"sequence": "GTAGGCACGTGTGATG", "relative binding free energy": 0.04}
{"sequence": "TCGAGCACGTGGGCGT", "relative binding free energy": -0.12}
{"sequence": "CTAGACACGTGGGAGG", "relative binding free energy": -0.12}
{"sequence": "GGGCGCACGTGGTGGG", "relative binding free energy": -0.16}
{"sequence": "TATGTCACGTGGGTCC", "relative binding free energy": 0.01}
{"sequence": "GGTGGCACGTGCCGTG", "relative binding free energy": 0.02}
{"sequence": "TGTCTCACGTGTAAGG", "relative binding free energy": 0.18}
{"sequence": "CGATGCACGTGGAGTT", "relative binding free energy": 0.13}
{"sequence": "TTTCGCACGTGGGTAA", "relative binding free energy": -0.1}
{"sequence": "TTGCACACGTGATAGG", "relative binding free energy": 0.19}
{"sequence": "AATGCCACGTGTTTAT", "relative binding free energy": 0.03}
{"sequence": "GTGCACACGTGGTGTA", "relative binding free energy": 0.03}
{"sequence": "AGACGCACGTGGTGTT", "relative binding free energy": -0.18}
{"sequence": "TATCACACGTGGGAGT", "relative binding free energy": -0.03}
{"sequence": "TGTCGCACGTGGGCGT", "relative binding free energy": -0.2}
{"sequence": "GAAGTCACGTGGACGT", "relative binding free energy": 0.15}
{"sequence": "GGGCGCACGTGGTTCG", "relative binding free energy": 0.05}
{"sequence": "AATTGCACGTGGTTGC", "relative binding free energy": 0}
{"sequence": "TGGGTCACGTGCTAGC", "relative binding free energy": 0.11}
{"sequence": "TGATTCACGTGGGGAG", "relative binding free energy": 0.02}
{"sequence": "AATTGCACGTGCGGAG", "relative binding free energy": -0.11}
{"sequence": "GGGATCACGTGGTGGG", "relative binding free energy": 0.15}
{"sequence": "ATGTGCACGTGGACTG", "relative binding free energy": -0.03}
{"sequence": "CGGTTCACGTGGGGAT", "relative binding free energy": 0.21}
{"sequence": "TATTTCACGTGATGCT", "relative binding free energy": 0.31}
{"sequence": "GTTTTCACGTGGCAAT", "relative binding free energy": 0.28}
{"sequence": "GTTGACACGTGAACGT", "relative binding free energy": 0.22}
{"sequence": "GTCGTCACGTGGGACG", "relative binding free energy": 0.08}
{"sequence": "GGTTGCACGTGGTTCA", "relative binding free energy": 0.03}
{"sequence": "GGATGCACGTGGCTAT", "relative binding free energy": 0.01}
{"sequence": "TTGTCCACGTGAATGT", "relative binding free energy": 0.18}
{"sequence": "TTCTTCACGTGATATG", "relative binding free energy": 0.08}
{"sequence": "AATAGCACGTGTTTGC", "relative binding free energy": -0.01}
{"sequence": "CGTTTCACGTGTGTTT", "relative binding free energy": 0.26}
{"sequence": "GGCAGCACGTGAGGGC", "relative binding free energy": 0.13}
{"sequence": "CTTAACACGTGTGTGA", "relative binding free energy": -0.06}
{"sequence": "AGGAGCACGTGGTGGA", "relative binding free energy": -0.11}
{"sequence": "TATGTCACGTGAAATG", "relative binding free energy": 0.22}
{"sequence": "TGTTTCACGTGGTGCT", "relative binding free energy": 0.12}
{"sequence": "CATATCACGTGTGGTA", "relative binding free energy": 0.08}
{"sequence": "TATGGCACGTGAGTGG", "relative binding free energy": 0.1}
{"sequence": "GTTGTCACGTGGCATT", "relative binding free energy": 0.06}
{"sequence": "TGGTGCACGTGGGGTC", "relative binding free energy": -0.23}
{"sequence": "GCGAGCACGTGTGTTG", "relative binding free energy": 0.01}
{"sequence": "TCTGGCACGTGTTATA", "relative binding free energy": -0.17}
{"sequence": "GTGGGCACGTGGGGTA", "relative binding free energy": -0.25}
{"sequence": "GTGGACACGTGAAGAG", "relative binding free energy": 0.19}
{"sequence": "GTAAGCACGTGGTTTA", "relative binding free energy": -0.22}
{"sequence": "AGCAGCACGTGTGGGT", "relative binding free energy": 0}
{"sequence": "CTATGCACGTGAGGGC", "relative binding free energy": 0.16}
{"sequence": "TAAATCACGTGTGTGT", "relative binding free energy": 0.13}
{"sequence": "TATGTCACGTGTTAAT", "relative binding free energy": 0.13}
{"sequence": "CTTGGCACGTGCAAGG", "relative binding free energy": -0.07}
{"sequence": "GCAGGCACGTGGTGGT", "relative binding free energy": -0.18}
{"sequence": "TGCTGCACGTGAATGG", "relative binding free energy": 0.11}
{"sequence": "GACTTCACGTGGTATT", "relative binding free energy": 0.25}
{"sequence": "GGTTACACGTGTTCGG", "relative binding free energy": 0.15}
{"sequence": "TGGGGCACGTGTTGAG", "relative binding free energy": -0.05}
{"sequence": "TCAGTCACGTGAAGGG", "relative binding free energy": 0.3}
{"sequence": "ACTGGCACGTGTTCGT", "relative binding free energy": -0.15}
{"sequence": "TGGGTCACGTGATGTA", "relative binding free energy": 0.22}
{"sequence": "CAGGGCACGTGTCGTG", "relative binding free energy": -0.16}
{"sequence": "TGTCCCACGTGTTATT", "relative binding free energy": -0.03}
{"sequence": "ATGGTCACGTGGAGGA", "relative binding free energy": 0.1}
{"sequence": "TTTTTCACGTGACGTT", "relative binding free energy": 0.45}
{"sequence": "CATTGCACGTGGGGGA", "relative binding free energy": -0.13}
{"sequence": "TATTACACGTGGTTAT", "relative binding free energy": 0.03}
{"sequence": "GGGCGCACGTGGGAAG", "relative binding free energy": -0.09}
{"sequence": "ATGGACACGTGCAAGG", "relative binding free energy": 0}
{"sequence": "TTTTTCACGTGTCTTC", "relative binding free energy": 0.43}
{"sequence": "TTACACACGTGTGGGT", "relative binding free energy": 0.07}
{"sequence": "GTGTGCACGTGTTACT", "relative binding free energy": -0.03}
{"sequence": "TTGGTCACGTGTATCG", "relative binding free energy": 0.13}
{"sequence": "CGATACACGTGGGTAG", "relative binding free energy": -0.1}
{"sequence": "GGTGGCACGTGTTGCT", "relative binding free energy": -0.08}
{"sequence": "CGTTGCACGTGTGATT", "relative binding free energy": 0}
{"sequence": "CTTGACACGTGCGGGG", "relative binding free energy": 0.03}
{"sequence": "TTTACCACGTGGTGGC", "relative binding free energy": 0.05}
{"sequence": "TTTCTCACGTGCGGGT", "relative binding free energy": 0.22}
{"sequence": "AGCTTCACGTGGTGTT", "relative binding free energy": 0.16}
{"sequence": "CCTGGCACGTGGATGG", "relative binding free energy": -0.11}
{"sequence": "CTTGTCACGTGGGTAA", "relative binding free energy": 0.04}
{"sequence": "TAGGGCACGTGTTGGA", "relative binding free energy": -0.03}
{"sequence": "TAGCTCACGTGGTAGA", "relative binding free energy": 0.17}
{"sequence": "TGCTTCACGTGGTAGT", "relative binding free energy": 0.27}
{"sequence": "AGATTCACGTGGATGG", "relative binding free energy": 0.3}
{"sequence": "CGTTGCACGTGGAGTT", "relative binding free energy": 0.01}
{"sequence": "TGATACACGTGAAGGA", "relative binding free energy": 0.28}
{"sequence": "GGCGGCACGTGGTGAA", "relative binding free energy": -0.02}
{"sequence": "TGGAGCACGTGCAAGT", "relative binding free energy": 0.03}
{"sequence": "GGATACACGTGGGGTC", "relative binding free energy": -0.05}
{"sequence": "AAGGTCACGTGAGCAG", "relative binding free energy": 0.38}
{"sequence": "TTTCTCACGTGACGGG", "relative binding free energy": 0.29}
{"sequence": "ATCTGCACGTGTGTGC", "relative binding free energy": 0.01}
{"sequence": "GTATTCACGTGAAGGA", "relative binding free energy": 0.24}
{"sequence": "AGATACACGTGGAGGA", "relative binding free energy": 0.06}
{"sequence": "AGGTTCACGTGGGGGA", "relative binding free energy": 0.13}
{"sequence": "GTGATCACGTGGAGTG", "relative binding free energy": 0.07}
{"sequence": "TAGGTCACGTGCGGTG", "relative binding free energy": 0.11}
{"sequence": "TGTGTCACGTGTTTCA", "relative binding free energy": 0.02}
{"sequence": "GGTTGCACGTGAAAGG", "relative binding free energy": 0.42}
{"sequence": "TTGTACACGTGATTGG", "relative binding free energy": 0.1}
{"sequence": "CGTGCCACGTGTGTGG", "relative binding free energy": -0.06}
